ChEMBL document CHEMBL1201862, “PubChem BioAssay data set” (2004)
Structures can show the parent of a compound that is named as a salt.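 Briefly, cells in 96-well plates were exposed to five compound concentrations for 48 h, and endpoints were estimated by linear interpolation. GI50 is the concentration that inhibits growth by half.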 Active and inactive are the calls of the source. No stated cut-off is given here; in the data, active = GI50 up to about 1.1 µM and inactive = higher.

system: NCI-H322M; experiment: growth of human tumour cells (NCI), 48 h

SMILES	GI50
CN(C)Cc1cc(/N=N/c2ccccc2Cl)ccc1O	inactive: 45.4 µM
O=C1c2ccccc2S(=O)(=O)c2cc(-c3nn[nH]n3)ccc21 [DOXANTRAZOLE]	inactive: > 100 µM
COC(=O)c1c(O)ccc2c1c1c(n2Cc2cccc(C)c2)C(=O)c2ccccc2C1	inactive: 15.5 µM
COc1cccc2c1N[S@](=O)S2	inactive: > 100 µM
NC(Cc1ccc(O)cn1)C(=O)O (stereo not given)	inactive: > 100 µM
CCOc1cc2c[n+](C)c3c4cc(OC)c(OC)cc4ccc3c2cc1OC	inactive: > 100 µM
COc1ccc2c(c1)CCC(CN1CCN(CCOC(c3ccccc3)c3ccccc3)CC1)C2O (stereo not given)	inactive: 15.8 µM
CN(CCCNC(=O)c1nn(-c2ccc(Cl)cc2Cl)c2c1Cc1ccccc1-2)CCCNC(=O)c1nn(-c2ccc(Cl)cc2Cl)c2c1Cc1ccccc1-2	inactive: 1.76 µM
CN(C)CCOc1ccc2c(c1)C/C(=C/c1ncc([N+](=O)[O-])n1C)C2=O	inactive: 2.72 µM
O=C(Cc1nc2ccccc2s1)C(=O)Nc1ccc(Cl)cc1	inactive: > 100 µM
CC1CC/C(=C\c2ccc(Cl)cc2)C2OC(N)=C(C#N)C(c3ccc(Cl)cc3)=C12 (stereo not given)	inactive: 12.7 µM
Nc1ccc(Cc2ccc(/N=C\c3ccc(OCc4cccc(COc5ccc(/C=N\c6ccc(Cc7ccc(N)cc7)cc6)cc5)n4)cc3)cc2)cc1	inactive: > 100 µM
CN(C)Cc1cc(C(C)(C)C)cc(CNC2CCCCC2)c1O	inactive: 18 µM
O=C(CCc1nnc(S)[nH]1)Nc1ccc(Cl)c(Cl)c1	inactive: > 100 µM
CCOP(=O)(OCC)/C(C#N)=C/c1c[nH]c2ccccc12	inactive: > 100 µM
CCc1ccccc1N1C(=O)C(=O)C(c2nc3ccccc3s2)C(=O)C1=O	inactive: > 100 µM
CN(C)c1ccc(/C=N/n2c(-c3ccccc3)nc3ccccc3c2=O)cc1	inactive: > 100 µM
C=CCN(CCNS(=O)(=O)c1ccc(C)cc1)S(=O)(=O)c1ccc(C)cc1	inactive: > 100 µM
O=C(CC(C(=O)c1ccsc1)c1ccccc1)c1cccs1 (stereo not given)	inactive: > 100 µM
C/C(=C1/N=C(c2ccccc2)OC1=O)c1ccccc1	inactive: 45.2 µM
Oc1cc(O)c2c(c1)OC(c1ccc(O)c(O)c1)C(O)C2c1c(O)cc(O)c2c1OC(c1ccc(O)c(O)c1)C(O)C2 (stereo not given)	inactive: > 100 µM
O=C(NO)c1cccc(OCc2ccc(Br)cc2)c1	inactive: 4.23 µM
COc1ccc(-c2cc(=O)c3c(OC)c(O)c(OC)cc3o2)cc1	inactive: 42.8 µM

SMILES	GI50
CCCC12Cc3c(OC)ccc(OC)c3CC(Cc3c(OC)ccc(OC)c31)C2=O (stereo not given)	inactive: > 100 µM
CC(=O)Nc1ccc(C2SCc3nc4ccccc4n32)cc1 (stereo not given)	inactive: > 100 µM
C[Si](C)(C)c1ccc(-c2sc(-c3ccc([Si](C)(C)C)s3)c3c2C[Si]2(C3)Cc3c(-c4ccc([Si](C)(C)C)s4)sc(-c4ccc([Si](C)(C)C)s4)c3C2)s1	inactive: > 100 µM
CC(C)(C)OC(=O)N1C(=O)OC[C@@H]2C=C[C@@H]21	inactive: > 100 µM
N#CC1Cc2cc3c(cc21)OCO3 (stereo not given)	inactive: > 100 µM
COc1ccc(/C=N/c2nc3cc4sc(/N=C/c5ccc(OC)cc5)nc4cc3s2)cc1	inactive: 65.6 µM
COc1cc(S(=O)(=O)Nc2nc(-c3ccc(N4C(=O)/C(=C\c5cccs5)N=C4c4ccccc4)cc3)cs2)ccc1Cl	inactive: > 100 µM
Cc1cccc2c1CC(C1OC(=O)c3ccccc31)C2=O (stereo not given)	inactive: > 100 µM
CC(CNCCCNCCNCCCNCO)[N+](=O)[O-] (stereo not given)	inactive: > 100 µM
C/C(=N\N)C(CN(C)C)C(c1ccccc1)c1c(O)c2ccccc2oc1=O (stereo not given)	inactive: > 100 µM
O=C1C(c2ccc(Br)cc2)=[N+]([O-])c2ccccc21	inactive: 19.4 µM
O=C1c2c(O)cccc2-c2nn(CCNCCO)c3ccc(NCCNCCO)c1c23 [LOSOXANTRONE HYDROCHLORIDE]	active: 0.443 µM
O=C(/C=C/c1ccccc1)Nc1ccccc1SCCCCl	inactive: 12.1 µM
Nc1nc(SCc2ccccc2Cl)c2ncn(C3OC(CO)C(O)C3O)c2n1 (stereo not given)	inactive: > 100 µM
OCC(O)C(O)C(C=NNc1ncnc2ccc(Br)cc12)=NNc1ncnc2ccc(Br)cc12 (stereo not given)	inactive: 1.34 µM
Brc1ccc(/C=N/C23CC4CC(CC(C4)C2)C3)cc1	inactive: > 100 µM
CN(C)c1ccc(-c2nc(-c3cc4c(ccc5ccccc54)oc3=O)cs2)cc1	inactive: > 100 µM
Cc1cc2c3ccccc3n(C)c2c2c1C(=O)c1ccccc1C2=O	inactive: 15.2 µM
O=C1C2c3[nH]c4ccccc4c3[C@@H]3CCCCCCCCCCC3C2C(=O)N1c1ccccc1 (stereo not given in full)	inactive: 90.8 µM
COc1cccc(/C=C2\C(=O)N(C(=O)Cc3ccccc3)N=C2C)c1	inactive: > 100 µM
Fc1ccc(C(OCCN2CCC3CCC(C2)N3C/C=C/c2cccnc2)c2ccc(F)cc2)cc1 (stereo not given)	inactive: 13.6 µM
COc1ccc(C2(O)C(S(=O)(=O)c3ccc(C)cc3)=Cc3ccc(OC)cc32)cc1 (stereo not given)	inactive: 41.3 µM
CCCNc1ncnc2[nH]ncc12	inactive: > 100 µM

SMILES	GI50
O=[N+]([O-])/C(C(Cl)=C(Cl)Cl)=C(/Sc1ccccc1)N1CCOCC1	inactive: 16.7 µM
COc1ccc(NC(=S)N/N=C2\C(=O)Nc3ccccc32)cc1	inactive: 24.4 µM
C=C(C)C(CC=C(C)C)Cc1c(O)cc(OC)c2c1OC(c1ccc(O)cc1O)C(O)C2=O (stereo not given)	inactive: 17.6 µM
COC(=O)c1cc2c3c(cc(NCCN)c2[nH]1)N(C(=O)c1cc2cc(OC)c(OC)c(OC)c2[nH]1)CC3CCl (stereo not given)	active: 0.0638 µM
CCOC(=O)C(C(N)=O)C1=Nc2cc([N+](=O)[O-])ccc2N/C1=C\C(=O)c1ccc(C)cc1 (stereo not given)	inactive: 47.9 µM
CN1/C(=C\N=O)C(C)(C)N(O)C1(C)C	inactive: > 100 µM
O=C(O)c1[nH]c2c([N+](=O)[O-])cc([N+](=O)[O-])cc2c1C(=O)O	inactive: > 100 µM
Cc1cc(N2CCN(C)CC2)n2nc(-c3ccc(Cl)cc3)nc2n1	inactive: 69.3 µM
O=C(CCl)N1CCCCC1C1(c2cc3ccccc3[nH]2)OCCO1 (stereo not given)	inactive: 5.16 µM
CN(CCCNC(=O)c1cn(C)c2c1Cc1ccccc1-2)CCCNC(=O)c1cn(C)c2c1Cc1ccccc1-2	inactive: 11.4 µM
N/N=C(\Nc1ccccc1)SCc1ccccc1	inactive: > 100 µM
CCOC(=O)c1c(SC(=O)c2ccc(Cl)cc2)n(-c2ccccc2)c(=S)n(-c2ccccc2)c1=O	inactive: > 100 µM
COc1ccc(/N=C(Nc2ccc(OC)cc2)/C(=N/c2ccc(OC)cc2)Nc2ccc(OC)cc2)cc1	inactive: > 100 µM
COc1ccc(C2=NOC(N)(c3ccc(OC)cc3)C2)cc1 (stereo not given)	inactive: > 100 µM
COc1cc2c(/C=C3/C(=O)Nc4ccccc43)c(Cl)n(Cc3ccc(Cl)cc3)c2cc1C	active: 1.03 µM
O=C(O)CCC(NC(=O)c1ccc(OCc2nc3cc(C(F)(F)F)ccc3nc2-c2ccccc2)cc1)C(=O)O (stereo not given)	inactive: > 100 µM
[N-]=[N+]=NC(c1cn(C2CC(O)C(CO)O2)c(=O)[nH]c1=O)C(Cl)Br (stereo not given)	inactive: > 100 µM
Cc1ccc(S(=O)(=O)N/N=C2\CC(C)OC3=C2CCCCCC3)cc1 (stereo not given)	inactive: 21.3 µM
CSc1c(C#N)c2n(c3ccccc3[n+]2C)c2ncccc12	inactive: 35.2 µM
CCOC(=O)C(NC(=O)NCc1ccc(F)cc1)C(F)(F)F (stereo not given)	inactive: > 100 µM
COc1cc2cc(C(=O)N3CC(CCl)c4c3cc(NC(=O)C(C)Nc3c([N+](=O)[O-])cc(C(=O)NCCN(C)C)cc3[N+](=O)[O-])c3ccccc43)[nH]c2c(OC)c1OC (stereo not given)	active: 0.084 µM
CC(/C=C/c1ccc([N+](=O)[O-])o1)=N/N1CC(CN2CCOCC2)OC1=O (stereo not given)	inactive: 38.2 µM
CCOC(=O)c1[nH]cc(C)c1-c1c[nH]c2ccccc12	inactive: 33.3 µM

SMILES	GI50
C[C@@H](CCO)OC1OC(COC(=O)C(C)(C)C)C(OC(=O)C(C)(C)C)C(OC(=O)C(C)(C)C)C1OC(=O)C(C)(C)C (stereo not given in full)	inactive: 51.8 µM
BrC1(c2ccccc2)C[n+]2c(-c3ccccc3)cc(-c3ccccc3)cc2-c2ccccc21 (stereo not given)	inactive: 2.49 µM
COc1ccccc1/C=C1\Sc2scc(-c3ccc(O)c(O)c3)[n+]2C1=O	inactive: 37.6 µM
CSC(=S)N/N=C(\C)c1ccc(S(=O)(=O)N(C)c2ccccc2)cc1	inactive: 67.6 µM
CC(=O)OC(C)(C)/C=C/C(=O)[C@](C)(O)[C@H]1[C@H](O)C[C@@]2(C)[C@@H]3CC=C4[C@@H](C[C@H](O)C(=O)C4(C)C)[C@]3(CO)C(=O)C[C@]12C [CUCURBITACIN A]	active: 0.925 µM
Cc1nnc(S(=O)(=O)c2ccc(/N=N/c3c(N)nc(N)nc3N)cc2)s1	inactive: > 100 µM
CC(=O)n1[nH]c(=O)n(-c2ccccc2)c1=O	inactive: > 100 µM
C#CC(=O)OCC#CCOC(=O)C#C	inactive: > 100 µM
COC(=O)NC(=O)c1cn(C2CCCCC2)c(=O)[nH]c1=O	inactive: > 100 µM
[O-][N+](CCO)(CCO)c1ncnc2[nH]cnc12	inactive: > 100 µM
C=CC[N+](CCO)(CCO)CCCCCCCCCCCCCCCCCC	inactive: 11.5 µM
COC(=O)/C=C/C(=O)C1C(C(=O)OC)C2(C(=O)OC)CCC1(C(=O)OC)N2 (stereo not given)	inactive: > 100 µM
Cc1cc(C)n(C(=O)CSc2nnc(SCC(=O)n3nc(C)cc3C)s2)n1	inactive: > 100 µM
COC(=O)C(C)Oc1ccc(O)cc1 (stereo not given)	inactive: > 100 µM
O=S(=O)(O)c1ccc2c(/N=N\c3ccc(F)cc3)c(O)c(S(=O)(=O)O)cc2c1	inactive: > 100 µM
CCCSc1cc(Cl)c(C)cc1S(=O)(=O)n1ccnc1O	inactive: > 100 µM
CCCCCCCNC(P(=O)(O)O)P(=O)(O)O	inactive: > 100 µM
CNC(=S)OCCC(C)CCCC(C)C (stereo not given)	inactive: 18.2 µM
COc1ccc(-n2c3c(c4cc(O)ccc42)C(=O)c2ccccc2C3=O)cc1	inactive: 3.3 µM
CCOC(=O)/C=C/C1=C(Br)[C@@]2(C)CC[C@@H]3c4ccc(O)cc4CC[C@H]3[C@@H]2C1	inactive: 15.5 µM
O=c1oc2ccc(Cl)cc2cc1-c1cn2cc(Cl)ccc2n1	inactive: > 54.3 µM
